In the BET-seq Pho4 binding data (Le et al. 2018):
Some of the results follow. These are noisy estimates, calculated here from bound and input reads.

Each sequence was assayed against T1, Pho4 (S. cerevisiae) (UniProt P07270) (assay: relative binding free energy (BET-seq); higher = weaker binding). Details: reference: library average.
T1 sequence: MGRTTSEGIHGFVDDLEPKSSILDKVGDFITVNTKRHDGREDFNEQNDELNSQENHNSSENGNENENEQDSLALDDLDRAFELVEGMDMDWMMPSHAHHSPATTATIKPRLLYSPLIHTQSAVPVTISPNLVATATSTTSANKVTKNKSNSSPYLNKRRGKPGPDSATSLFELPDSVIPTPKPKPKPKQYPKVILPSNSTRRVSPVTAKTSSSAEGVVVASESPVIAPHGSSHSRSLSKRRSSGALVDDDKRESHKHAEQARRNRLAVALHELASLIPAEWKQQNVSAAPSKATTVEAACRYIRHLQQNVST

Relative binding free energy, 0.11 kcal/mol:
TGGGACACGTGCTTTG
TCATGCACGTGTTGAT
AATTTCACGTGGAATG

Relative binding free energy, -0.11 kcal/mol:
CATAGCACGTGTTTTT

Relative binding free energy, 0 kcal/mol:
TGATACACGTGTGGTG
TAGTGCACGTGCAGGG
AGTGGCACGTGTATCG

Relative binding free energy, 0.2 kcal/mol:
TGGCTCACGTGGATGT
TTCTTCACGTGGTAGC
TGCTACACGTGGAAGG

Relative binding free energy, 0.13 kcal/mol:
TCTCTCACGTGGTTGG
GGGGGCACGTGAGTCT
CATGTCACGTGGTTTT
ATGTGCACGTGACGGA
TGCGGCACGTGAGGTT
GGGTACACGTGTGTGG

Relative binding free energy, -0.02 kcal/mol:
TGTTGCACGTGGGAAA
TGGACCACGTGTTGAT
TTAGGCACGTGTGATT
TTGACCACGTGCGTTG

Relative binding free energy, 0.14 kcal/mol:
AATTACACGTGCTTGG
AGTCGCACGTGATGGA
GATTGCACGTGTTGCA
TTTAGCACGTGATTGA
GTACACACGTGTTTGG
AATTACACGTGTGGTT

Relative binding free energy, 0.35 kcal/mol:
TTAATCACGTGAGGTG
AATTTCACGTGAGGAG
TTTTCCACGTGAATTT

Relative binding free energy, 0.37 kcal/mol:
GTTCACACGTGATTGG

Relative binding free energy, -0.22 kcal/mol:
TCAGGCACGTGGGAGA

Relative binding free energy, -0.13 kcal/mol:
TGTACCACGTGTGAGG

Relative binding free energy, 0.27 kcal/mol:
GTAGTCACGTGTGGTG
GTATACACGTGATAAG
TGTTACACGTGAGCGC

Relative binding free energy, -0.27 kcal/mol:
TAGTGCACGTGGGTCG
AGTACCACGTGGGTAG

Relative binding free energy, -0.06 kcal/mol:
CTTCACACGTGGGTGT
CATGGCACGTGTGTTG
TTTACCACGTGGCGGT
GACACCACGTGGGGGG

Relative binding free energy, 0.07 kcal/mol:
TTTATCACGTGTGTCT
GCGGTCACGTGGAGAG
TGAGGCACGTGAAATG
TAGATCACGTGGTGAG
CGGGGCACGTGATTTT
GAGGGCACGTGACGTT

Relative binding free energy, -0.21 kcal/mol:
CCTGGCACGTGGGTTT

Relative binding free energy, 0.41 kcal/mol:
CGTTTCACGTGACTTG

Relative binding free energy, -0.03 kcal/mol:
TGTGGCACGTGCGGAG
TATAGCACGTGGTAAG
TTTGGCACGTGTAATG

Relative binding free energy, -0.14 kcal/mol:
CTGTGCACGTGCTTGG
TTAGCCACGTGTGGTG
CTAGGCACGTGGGGAG

Relative binding free energy, 0.03 kcal/mol:
GTGTACACGTGTTGCA
TTCTCCACGTGTTTGG

Relative binding free energy, 0.31 kcal/mol:
AGGTTCACGTGGTGAG
CTGTACACGTGAATGG
GTTTTCACGTGGCGCG
GTTTTCACGTGATAGG
TTTCGCACGTGAAGGG
CAGTTCACGTGTTGGA
TTTTTCACGTGGAGTA

Relative binding free energy, 0.15 kcal/mol:
GTAGTCACGTGGTTAA
TTTCTCACGTGGGGCA
AAGTACACGTGGATGT
TGCGTCACGTGATTAT
TAATGCACGTGACGGT

Relative binding free energy, 0.06 kcal/mol:
ATAATCACGTGGGAGA
AAATGCACGTGTCAGG
GGAGGCACGTGTCTGT

Relative binding free energy, 0.05 kcal/mol:
TTGGGCACGTGACGTT
CGTGTCACGTGTAGAA
GGATACACGTGTAGTG
TTTCGCACGTGGGCCT
AAGGCCACGTGTATTT
TATTGCACGTGAGTTA
GAATACACGTGGGTTG
TGGGTCACGTGGCGGA
GGAGACACGTGGTTTT

Relative binding free energy, -0.29 kcal/mol:
TTCGCCACGTGGGGTG
CTCGGCACGTGGGTTG

Relative binding free energy, -0.18 kcal/mol:
TCGGGCACGTGGGTGA
GGAGGCACGTGTCTTG
TTTAGCACGTGGCTAG

Relative binding free energy, 0.21 kcal/mol:
CATTTCACGTGGGTGG
TAGTTCACGTGCATTT
ATGTTCACGTGAAGAT
TTGAACACGTGACGTG
AGTTTCACGTGGGAGC

Relative binding free energy, 0.08 kcal/mol:
GTATGCACGTGTATGT
ATAATCACGTGGGTCG
TAACTCACGTGGTAGT
CGGTACACGTGTTAAT

Relative binding free energy, 0.34 kcal/mol:
GCTTTCACGTGTTTGG

Relative binding free energy, -0.01 kcal/mol:
TCGGACACGTGTAGGG
TGAGGCACGTGTCGGT
TAGATCACGTGGGAGT
ACTAACACGTGGTGGT

Relative binding free energy, 0.43 kcal/mol:
GATTTCACGTGACTGT

Relative binding free energy, 0.32 kcal/mol:
TATTACACGTGAGAGT
TGGGACACGTGAATGC
AGGCTCACGTGTGGTG
ACTGACACGTGAGTTG

Relative binding free energy, 0.09 kcal/mol:
ATTTGCACGTGATTCA
CGGGACACGTGCTGTG
GGTGCCACGTGTGTGT
TTTATCACGTGTTATT

Relative binding free energy, 0.25 kcal/mol:
ATATTCACGTGCTGTG

Relative binding free energy, 0.17 kcal/mol:
GTAGTCACGTGGATCG
TAAATCACGTGATTTA
ATTCACACGTGTTTGG

Relative binding free energy, 0.23 kcal/mol:
ATTTACACGTGAATTG
GAAATCACGTGCGTTG
TGAATCACGTGTCAGT

Relative binding free energy, 0.5 kcal/mol:
AGTTTCACGTGAAAGG

Relative binding free energy, 0.16 kcal/mol:
AGGTACACGTGATCGT
GTGTACACGTGACAGG

Relative binding free energy, 0.04 kcal/mol:
ATTAGCACGTGATATT
TTTGGCACGTGATTAT
GGTGACACGTGTAAGG
GCCGGCACGTGTAGGT
GTTATCACGTGTTCAT
TTAATCACGTGGGTTT
CAATGCACGTGGTGGG

Relative binding free energy, -0.07 kcal/mol:
CGGGGCACGTGGACTT
TGTCGCACGTGTGCTT
TGTTGCACGTGGAGAT
TGGCGCACGTGGAAGT
CTCGTCACGTGGGGTT
CAGAGCACGTGGTAGG

Relative binding free energy, 0.18 kcal/mol:
GGTTACACGTGAGTTA
AGTCTCACGTGGCGTT
TAGTACACGTGTGAGA

Relative binding free energy, -0.26 kcal/mol:
CTGGGCACGTGGCTAG

Relative binding free energy, 0.33 kcal/mol:
AGGTTCACGTGTTTAT
ATATTCACGTGTGGAA
AGTATCACGTGATGAA
TTTTTCACGTGTGTGG
AAGTTCACGTGCAGGT

Relative binding free energy, -0.08 kcal/mol:
GAGGGCACGTGGTCAA
GCCGGCACGTGAGGGG
GGAAGCACGTGTTAGT
GGAGACACGTGGCGGT
GCAAGCACGTGTGTAG
AGGTCCACGTGCAGGG

Relative binding free energy, 0.29 kcal/mol:
ACAGACACGTGATGGG
GTCTTCACGTGTGGCT
GAGCTCACGTGTGTGG
AGGGTCACGTGAACTT

Relative binding free energy, -0.04 kcal/mol:
GGAGGCACGTGTCGGA
AGAGTCACGTGTTGTA
TTTGTCACGTGCTAGA
TGCGGCACGTGTATGC

Relative binding free energy, 0.01 kcal/mol:
GGGCGCACGTGTGCAT
TTATACACGTGGACTG

Relative binding free energy, 0.26 kcal/mol:
GTACGCACGTGAGTGA
GCGTGCACGTGAGGTA
TGGCTCACGTGTCGCG

Relative binding free energy, 0.12 kcal/mol:
TTTTCCACGTGTTAAT
ATATGCACGTGATGTG
TTTTGCACGTGACTTA
TTGTACACGTGTGGCT
AGTATCACGTGTAAGG
GGGGTCACGTGCCGAG
GAGGGCACGTGTAGAA
AAGGTCACGTGTGCAG
GGGGGCACGTGACAGT

Relative binding free energy, 0.02 kcal/mol:
TTGGCCACGTGGTTTT
TTATACACGTGCATGG
TGGTGCACGTGTGCTG
TGGATCACGTGTTAGG
GTCTGCACGTGCGTGT
GAAGGCACGTGTGAGA
GACTGCACGTGGTGTT

Relative binding free energy, 0.28 kcal/mol:
CACGTCACGTGTATGG

Relative binding free energy, -0.2 kcal/mol:
TGAGGCACGTGGGGCT
AATAGCACGTGGTTCT
AAGGGCACGTGGGGAC

Relative binding free energy, -0.1 kcal/mol:
GCGCGCACGTGGTGTT
CTAGTCACGTGGAGGG
GGCGGCACGTGGCGGA
GTGCGCACGTGGAGGG
CTTTGCACGTGCGGTT
AGAGGCACGTGGAGCT

Relative binding free energy, -0.12 kcal/mol:
GTTGGCACGTGTCATG
TGCAGCACGTGTTGTT
AGTAACACGTGCGGTA
AGACACACGTGGGTGG
TAGGGCACGTGGTTGC

Relative binding free energy, 0.1 kcal/mol:
AGTTACACGTGTTCAA
GTGAACACGTGTGCAT
AGTGACACGTGGACTG
TTTTTCACGTGCTGAG

Relative binding free energy, -0.15 kcal/mol:
CGAGGCACGTGCCGGG
GGTGACACGTGGGGTA
ACTGGCACGTGTGTGT
TGAGGCACGTGGGAAC

Relative binding free energy, 0.3 kcal/mol:
TGGCGCACGTGAGAGC
GTTCTCACGTGTGGAT

Relative binding free energy, 0.22 kcal/mol:
TTTTTCACGTGCCGAT
TGGATCACGTGTTGAT
GGTAGCACGTGAGGTG
GTTAACACGTGAGTGG
GTAATCACGTGCGTTA

Relative binding free energy, -0.19 kcal/mol:
TAGCGCACGTGTGTGG
AATGGCACGTGCTGTT
ATATGCACGTGGTTGA

Relative binding free energy, -0.09 kcal/mol:
ATTGTCACGTGGCGTA
GTTGGCACGTGGTTTA
GTGAGCACGTGCGGTA
GGTAGCACGTGGATAT
TTAGGCACGTGATGCT

Relative binding free energy, 0.19 kcal/mol:
TCATGCACGTGATTAT

Relative binding free energy, 0.24 kcal/mol:
GCTTGCACGTGAGGAT
ATTTACACGTGAGGTG
TTATTCACGTGGCGAT
GGGCTCACGTGGTATG

Relative binding free energy, -0.05 kcal/mol:
TTGACCACGTGTGTTA
GTCAGCACGTGTGGAG
TGGGCCACGTGATCGG
GGAGGCACGTGGGAAT
CGTTACACGTGTAGTG

Relative binding free energy, -0.17 kcal/mol:
TGTTGCACGTGCATAT
GAGAGCACGTGTTTGT
ATGAGCACGTGGAGTG
CCTAGCACGTGGGGGG

Relative binding free energy, -0.16 kcal/mol:
CGGCGCACGTGGTGGG
ACTGGCACGTGGGAGG
